Experiment [1] concerns the target EP300 acetyltransferase (human (endogenous in HeLa)) (UniProt Q09472). Put plainly: co-IP; IP with EP300 antibody from lysate of cells transfected with GFP- or YFP-tagged mTORC1 constructs; overnight at 4°C, Dynabeads-protein G; blot.
For experiment [2], the target named is YFP-proline-rich Akt substrate of 40 kDa (PRAS40) (UniProt Q96B36). Put plainly: co-IP; GFP-Trap beads hold the GFP- or YFP-tagged protein from lysate of transfected cells; 10 mM Tris-HCl pH 7.4, 150 mM NaCl, 0.5 mM EDTA, 0.3% CHAPS; 1 h at 4°C; partners found by blot.
Experiment [3] concerns the target YFP-Raptor (regulatory-associated protein of mammalian target of rapamycin), wild type (human) (UniProt Q8N122). The description is as above.
Experiment [4] has as its target YFP-DEP domain-containing mTOR-interacting protein (DEPTOR) (UniProt Q8TB45). Described as above.

By UniProt entry, the sequences of proteins in these tests, tags left out.
UniProt Q09472: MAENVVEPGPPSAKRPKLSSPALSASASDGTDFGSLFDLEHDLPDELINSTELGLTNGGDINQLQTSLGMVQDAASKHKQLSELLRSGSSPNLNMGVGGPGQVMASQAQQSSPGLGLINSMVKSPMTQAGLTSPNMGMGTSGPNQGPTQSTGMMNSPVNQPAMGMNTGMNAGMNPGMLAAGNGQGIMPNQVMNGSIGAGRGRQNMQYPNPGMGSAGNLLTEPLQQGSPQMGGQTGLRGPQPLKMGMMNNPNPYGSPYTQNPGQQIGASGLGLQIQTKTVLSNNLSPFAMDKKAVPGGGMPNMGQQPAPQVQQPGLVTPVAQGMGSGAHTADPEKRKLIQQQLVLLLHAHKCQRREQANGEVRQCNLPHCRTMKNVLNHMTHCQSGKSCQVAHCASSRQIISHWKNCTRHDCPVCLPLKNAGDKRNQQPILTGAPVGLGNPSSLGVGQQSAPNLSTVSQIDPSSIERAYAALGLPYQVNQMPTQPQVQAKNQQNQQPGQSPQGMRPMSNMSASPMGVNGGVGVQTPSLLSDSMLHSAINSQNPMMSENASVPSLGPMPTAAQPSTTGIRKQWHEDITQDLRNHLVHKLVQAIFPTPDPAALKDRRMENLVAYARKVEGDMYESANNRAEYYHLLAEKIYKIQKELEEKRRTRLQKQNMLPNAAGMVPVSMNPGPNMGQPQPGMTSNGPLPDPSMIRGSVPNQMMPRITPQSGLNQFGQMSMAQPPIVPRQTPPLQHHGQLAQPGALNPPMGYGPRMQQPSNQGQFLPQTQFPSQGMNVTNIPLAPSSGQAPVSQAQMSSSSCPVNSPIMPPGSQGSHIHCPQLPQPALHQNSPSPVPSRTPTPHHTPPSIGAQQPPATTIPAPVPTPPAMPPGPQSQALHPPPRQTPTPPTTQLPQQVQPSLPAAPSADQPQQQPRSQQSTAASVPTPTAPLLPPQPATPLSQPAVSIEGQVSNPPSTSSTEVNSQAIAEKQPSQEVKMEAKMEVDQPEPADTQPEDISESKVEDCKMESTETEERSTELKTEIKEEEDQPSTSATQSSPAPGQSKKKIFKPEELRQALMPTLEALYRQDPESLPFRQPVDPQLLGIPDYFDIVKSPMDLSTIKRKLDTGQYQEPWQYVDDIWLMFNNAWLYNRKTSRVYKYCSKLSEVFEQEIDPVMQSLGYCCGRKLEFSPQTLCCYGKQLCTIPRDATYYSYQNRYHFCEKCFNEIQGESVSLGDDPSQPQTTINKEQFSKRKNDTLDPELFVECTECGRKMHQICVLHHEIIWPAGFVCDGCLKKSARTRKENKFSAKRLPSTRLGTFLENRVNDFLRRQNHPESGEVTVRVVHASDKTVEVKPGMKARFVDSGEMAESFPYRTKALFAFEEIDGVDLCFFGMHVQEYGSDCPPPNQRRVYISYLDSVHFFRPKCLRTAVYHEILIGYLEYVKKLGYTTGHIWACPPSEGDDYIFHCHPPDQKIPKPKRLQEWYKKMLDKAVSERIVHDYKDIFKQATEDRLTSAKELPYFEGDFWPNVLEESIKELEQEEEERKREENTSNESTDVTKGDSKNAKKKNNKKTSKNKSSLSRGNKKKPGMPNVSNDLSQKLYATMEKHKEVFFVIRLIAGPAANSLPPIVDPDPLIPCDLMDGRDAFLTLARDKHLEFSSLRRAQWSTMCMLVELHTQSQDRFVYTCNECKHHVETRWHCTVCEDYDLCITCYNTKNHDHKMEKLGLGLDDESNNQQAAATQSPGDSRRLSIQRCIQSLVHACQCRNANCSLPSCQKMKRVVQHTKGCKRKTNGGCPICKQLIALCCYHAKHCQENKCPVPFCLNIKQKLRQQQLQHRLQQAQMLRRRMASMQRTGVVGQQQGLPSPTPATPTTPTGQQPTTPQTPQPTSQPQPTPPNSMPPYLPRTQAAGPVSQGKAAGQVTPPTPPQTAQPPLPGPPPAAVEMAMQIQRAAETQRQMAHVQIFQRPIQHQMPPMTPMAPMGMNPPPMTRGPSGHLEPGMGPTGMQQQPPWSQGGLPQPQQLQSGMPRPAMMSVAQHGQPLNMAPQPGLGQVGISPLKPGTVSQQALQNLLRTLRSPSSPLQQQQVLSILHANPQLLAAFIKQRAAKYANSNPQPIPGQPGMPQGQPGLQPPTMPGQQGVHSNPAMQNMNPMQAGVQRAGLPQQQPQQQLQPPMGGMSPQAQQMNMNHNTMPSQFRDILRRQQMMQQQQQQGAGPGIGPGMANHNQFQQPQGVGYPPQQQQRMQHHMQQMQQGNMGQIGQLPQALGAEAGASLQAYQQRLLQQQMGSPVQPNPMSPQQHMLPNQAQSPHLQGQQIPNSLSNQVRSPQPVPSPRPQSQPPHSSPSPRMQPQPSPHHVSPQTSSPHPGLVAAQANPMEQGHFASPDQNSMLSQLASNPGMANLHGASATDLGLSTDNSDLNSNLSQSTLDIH
UniProt Q8N122: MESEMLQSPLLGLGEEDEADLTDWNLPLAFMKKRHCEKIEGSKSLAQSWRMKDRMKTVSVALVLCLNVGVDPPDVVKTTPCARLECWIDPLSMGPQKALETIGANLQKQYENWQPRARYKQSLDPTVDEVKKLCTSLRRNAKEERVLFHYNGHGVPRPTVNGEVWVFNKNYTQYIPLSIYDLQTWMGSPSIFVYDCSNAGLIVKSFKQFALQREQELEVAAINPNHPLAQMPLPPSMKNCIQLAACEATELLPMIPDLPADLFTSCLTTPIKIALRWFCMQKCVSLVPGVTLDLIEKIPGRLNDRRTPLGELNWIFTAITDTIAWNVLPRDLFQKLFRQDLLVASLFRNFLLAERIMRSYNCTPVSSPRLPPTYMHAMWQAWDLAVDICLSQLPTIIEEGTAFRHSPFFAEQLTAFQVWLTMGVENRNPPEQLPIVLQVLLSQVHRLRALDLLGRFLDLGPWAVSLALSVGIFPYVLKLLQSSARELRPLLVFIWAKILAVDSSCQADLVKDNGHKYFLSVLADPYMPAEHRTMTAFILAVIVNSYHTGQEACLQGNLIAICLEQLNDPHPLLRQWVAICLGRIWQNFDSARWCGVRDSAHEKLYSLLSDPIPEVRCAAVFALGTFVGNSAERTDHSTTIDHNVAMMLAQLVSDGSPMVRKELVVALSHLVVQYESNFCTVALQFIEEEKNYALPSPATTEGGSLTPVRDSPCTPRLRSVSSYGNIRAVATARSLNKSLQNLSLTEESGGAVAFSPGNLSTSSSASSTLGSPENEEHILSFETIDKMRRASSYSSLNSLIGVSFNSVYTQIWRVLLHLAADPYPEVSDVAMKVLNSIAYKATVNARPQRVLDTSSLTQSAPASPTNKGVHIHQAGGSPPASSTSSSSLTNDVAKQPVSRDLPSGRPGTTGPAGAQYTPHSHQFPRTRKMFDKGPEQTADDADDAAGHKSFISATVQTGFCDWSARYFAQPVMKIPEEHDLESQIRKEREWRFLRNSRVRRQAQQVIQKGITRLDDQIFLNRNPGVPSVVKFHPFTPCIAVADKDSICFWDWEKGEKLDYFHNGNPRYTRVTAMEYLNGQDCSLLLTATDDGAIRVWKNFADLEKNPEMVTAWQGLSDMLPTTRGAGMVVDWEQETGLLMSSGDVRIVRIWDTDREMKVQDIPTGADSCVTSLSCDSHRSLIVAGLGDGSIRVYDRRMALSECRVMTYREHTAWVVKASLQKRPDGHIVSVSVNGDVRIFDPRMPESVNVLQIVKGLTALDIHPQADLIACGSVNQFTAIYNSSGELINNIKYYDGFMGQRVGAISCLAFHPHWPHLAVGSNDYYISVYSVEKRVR
UniProt Q8TB45: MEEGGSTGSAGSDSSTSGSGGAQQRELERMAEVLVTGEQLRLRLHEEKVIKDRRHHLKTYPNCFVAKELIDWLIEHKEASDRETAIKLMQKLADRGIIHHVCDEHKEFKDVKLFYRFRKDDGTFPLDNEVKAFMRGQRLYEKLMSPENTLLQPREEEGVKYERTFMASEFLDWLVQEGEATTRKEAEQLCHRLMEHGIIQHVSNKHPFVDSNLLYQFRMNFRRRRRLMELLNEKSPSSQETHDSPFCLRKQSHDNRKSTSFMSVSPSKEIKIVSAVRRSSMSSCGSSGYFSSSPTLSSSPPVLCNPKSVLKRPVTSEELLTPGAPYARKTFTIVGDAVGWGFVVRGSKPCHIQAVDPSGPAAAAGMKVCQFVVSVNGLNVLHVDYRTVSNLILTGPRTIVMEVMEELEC

Results are given in words; binding and its absence hold for the method and conditions named. In cells and extracts the contact can be indirect. Some binding calls cover weakened binding; strength is not graded here.

Consider “YFP-proline-rich Akt substrate of 40 kDa (PRAS40) (from UniProt Q96B36 1-256)”, for which the binding entry in experiment [1] was “no binding”.

As to “YFP-DEP domain-containing mTOR-interacting protein (DEPTOR) (from UniProt Q8TB45 1-409)”, the binding result in experiment [1] is on record as “no binding”.

“YFP-Raptor (regulatory-associated protein of mammalian target of rapamycin), wild type (from UniProt Q8N122 1-1335)”: the binding result in experiment [1] is listed as “binds”.

“EP300 acetyltransferase (from UniProt Q09472 1-2414) (enzyme)”: the binding result in experiment [2] was “no binding”; in experiment [3], “binds”; in experiment [4] it was “no binding”.

Values taken from article PMC6331339.
